Source: the supplement of paper PMC8183993
Where “and” joins values, the source holds several entries; their conditions need not be identical. Equal values may be shown once. Where a name gives a salt, the structure may show the parent alone. ± gives the standard deviation of the averaged measurements. The full ranking holds about 3,100 compounds; the median of “mean cytoplasmic OPP incorporation (global translation) relative to DMSO” is about 100, and the lowest 2% start at about 56. The list shows a part of the results. Square brackets hold non-standard residues; d marks the D form. Peptide text beside a SMILES is read from it. pGlu = O=C1CC[C@@H](C(=O)O)N1; Thz = O=C(O)[C@@H]1CSCN1

Each molecule was assayed on U2OS (assay: mean cytoplasmic OPP incorporation (global translation) relative to DMSO (% of DMSO); higher = more protein synthesis). Settings: 10 µM; 24 h.
Procedure: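 Primary image-based screen in U2OS cells: compounds at 10 uM for 24 h, then a 1 h o-propargyl-puromycin (OPP) pulse, click labelling, and high-throughput microscopy. Mean cytoplasmic OPP intensity and nuclei count were normalised to DMSO wells within each plate (DMSO = 100) and averaged over triplicate plates.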

Row | Structure (SMILES) | mean cytoplasmic OPP incorporation
1 | Nc1nccc(Oc2ccc(NC(=O)c3c[nH]cc(-c4ccc(F)cc4)c3=O)cc2F)c1Cl | 100 ± 8.4
2 | Cc1nc2c(-c3cnc(N)nc3)nc(N3CCOCC3)nc2n1C(C)C | 59.6
3 | Clc1ccc2c(c1)CCc1cccnc1C2=C1CCNCC1 [Desloratadine] | 107
4 | O=C1NCC2(CCN(CCc3ccccc3)CC2)O1 [Fenspiride hydrochloride] | 91.6
5 | CCS(=O)(=O)N1CC(CC#N)(n2cc(-c3ncnc4[nH]ccc34)cn2)C1 | 95.7
6 | CN(C)CCOC(c1ccccc1)c1ccccc1.Cn1c(=O)c2[nH]c(Cl)nc2n(C)c1=O [Dimenhydrinate] | 94.4
7 | CN(CCCN1c2ccccc2CCc2ccccc21)CC(=O)c1ccc(Cl)cc1 [Lofepramine] | 105
8 | CC(=O)OCCN1C(=O)c2c(C)nc3ccc(S(=O)(=O)N4CCOCC4)cc3c2C1=O [Ivachtin] | 105
9 | Cc1cc2nc3c(=O)[nH]c(=O)nc-3n(C[C@H](O)[C@H](O)[C@H](O)CO)c2cc1C [Riboflavin (Vitamin B2)] | 103
10 | CCCOc1ccc2[nH]c(NC(=O)OC)nc2c1 [Oxibendazole] | 98.5
11 | CCCOc1ccc2[nH]c(NC(=O)OC)nc2c1 [Oxibendazol] | 78.7
12 | O=C1NC(=O)c2cc(Nc3ccccc3)c(Nc3ccccc3)cc21 | 104
13 | CC(=O)O[C@@H]1C[C@H]2C(C)(C)C(=O)C=C[C@]2(C)[C@H]2CC[C@@]3(C)[C@H](c4ccoc4)OC(=O)[C@H]4O[C@]43[C@@]21C [Gedunin] | 113
14 | O=C(O)CCc1ccc(NCc2cccc(Oc3ccccc3)c2)cc1 | 99.2
15 | CC1CCN(CC[C@H]2CCCN2S(=O)(=O)c2cccc(O)c2)CC1 | 94 and 107
16 | Nc1ncnc2c1ncn2[C@@H]1O[C@H](CO)[C@@H](O)[C@@H]1O [Vidarabine] | 97.8
17 | CCOc1nc2cccc(C(=O)O)c2n1Cc1ccc(-c2ccccc2-c2nnn[nH]2)cc1 [Candesartan (Atacand)] | 103
18 | CCOc1nc2cccc(C(=O)O)c2n1Cc1ccc(-c2ccccc2-c2nnn[nH]2)cc1 [Candesartan] | 95.3
19 | O=c1[nH]cnc2nc[nH]c12 [Hypoxanthine] | 103
20 | C=CC(=O)Nc1cccc(Oc2nc(Nc3ccc(N4CCN(C)CC4)cc3)ncc2Cl)c1 | 64.9
21 | O=C[C@@H]1CCCN1C(=O)[C@@H]1CCCN1C(=O)OCc1ccccc1 [Z-Prolyl-prolinal] | 98
22 | C[C@@](Cc1ccc(O)c(O)c1)(NN)C(=O)O [Carbidopa] | 96.6
23 | NC[C@@H]1O[C@H](C23CC4CC(CC(C4)C2)C3)Cc2c1ccc(O)c2O | 95.8
24 | CN(C)CCC(c1ccc(Br)cc1)c1ccccn1 (configuration not stated) [Brompheniramine maleate] | 97.8
25 | COc1ccc(Cl)cc1NC(=O)Nc1cc(C)nc2ccccc12 | 106 ± 1.7
26 | Oc1c(Cl)cc(Cl)c2cccnc12 [Chloroxine] | 99.6

Row | Structure (SMILES) | mean cytoplasmic OPP incorporation
27 | c1ccc(-c2ccc(C(c3ccccc3)n3ccnc3)cc2)cc1 (configuration not stated) [Bifonazole] | 104
28 | O=C1CC[C@@H](C(=O)N2CSC[C@H]2C(=O)O)N1 [Pidotimod] ([pGlu]-[Thz]-OH) | 101
29 | CCCCc1oc2ccc(NS(C)(=O)=O)cc2c1C(=O)c1ccc(OCCCN(CCCC)CCCC)cc1 [Dronedarone HCl (Multaq)] | 132
30 | CCC1(c2ccccc2)C(=O)NCNC1=O [Primidone] | 99.2 ± 3.7
31 | CCCCCCCCCC(=O)N[C@@H](Cc1c[nH]c2ccccc12)C(=O)N[C@H](CC(N)=O)C(=O)N[C@@H](CC(=O)O)C(=O)N[C@@H]1C(=O)NCC(=O)N[C@@H](CCCN)C(=O)N[C@@H](CC(=O)O)C(=O)N[C@H](C)C(=O)N[C@@H](CC(=O)O)C(=O)NCC(=O)N[C@H](CO)C(=O)N[C@@H]([C@H](C)CC(=O)O)C(=O)N[C@@H](CC(=O)c2ccccc2N)C(=O)O[C@@H]1C [Daptomycin] | 101
32 | CC(=O)OC[C@H]1O[C@@H]([S-])[C@H](OC(C)=O)[C@@H](OC(C)=O)[C@@H]1OC(C)=O.CCP(CC)CC.[Au+] [Auranofin] | 10.4
33 | COc1cc(Nc2c(C#N)cnc3cc(OCCCN4CCN(C)CC4)c(OC)cc23)c(Cl)cc1Cl [Bosutinib (SKI-606)] | 99.8 ± 9.9
34 | C=CC(=O)Nc1cccc(Sc2nc(Nc3ccc(N4CCN(C)CC4)cc3)ncc2Cl)c1 | 57.4
35 | Cn1c(=O)c2c(ncn2CC2OCCO2)n(C)c1=O [Doxofylline] | 107
36 | Oc1cc2c(cc1O)C(c1ccccc1)CNCC2 (configuration not stated) | 122
37 | COCC(=O)NC/C=C/c1ccc2ncnc(Nc3ccc(Oc4ccc(C)nc4)c(C)c3)c2c1 | 110
38 | CCCc1cc(C)[nH]c(=O)c1CNC(=O)c1cc(-c2ccnc(N3CCN(C)CC3)c2)cc2c1cnn2C(C)C | 112
39 | CC(=O)N(CC(O)CO)c1c(I)c(C(=O)NCC(O)CO)c(I)c(C(=O)NCC(O)CO)c1I (configuration not stated) [Iohexol] | 99.8
40 | CN(CCCCCCCCCCN(C)C(=O)Oc1cccc([N+](C)(C)C)c1)C(=O)Oc1cccc([N+](C)(C)C)c1 [Demecarium bromide] | 87.8
41 | COC(=O)Nc1nc2cc(Sc3ccccc3)ccc2[nH]1 [Fenbendazole] | 59
42 | COC(=O)Nc1nc2cc(Sc3ccccc3)ccc2[nH]1 [Fenbendazole (Panacur)] | 87.8
43 | CC(C)(C)c1cc(C(C)(C)C)c(NC(=O)c2c[nH]c3ccccc3c2=O)cc1O [Ivacaftor (VX-770)] | 105
44 | Cc1ccc([C@@H]2O[C@H](CO)[C@@H](O)[C@H](O)[C@H]2O)cc1Cc1ccc(-c2ccc(F)cc2)s1 [Canagliflozin] | 104
45 | CC(C)NC[C@@H](C(=O)N1CCN(c2ncnc3c2[C@H](C)C[C@H]3O)CC1)c1ccc(Cl)cc1 | 100
46 | CC(C)NC[C@@H](C(=O)N1CCN(c2ncnc3c2[C@H](C)C[C@H]3O)CC1)c1ccc(Cl)cc1 [Ipatasertib (GDC-0068)] | 98.3
47 | CN1CCN(CC(=O)N2c3ccccc3C(=O)Nc3cccnc32)CC1 [Pirenzepine dihydrochloride] | 102
48 | O=C(c1ccc(F)cc1)N1CCC[C@H](c2nc(-c3ccc(F)cc3)no2)C1 | 95.8
49 | Cc1cccc(Nc2ccncc2S(=O)(=O)NC(=O)NC(C)C)c1 [Torsemide] | 99.6
50 | COc1cc2c(cc1OC)-c1c/c(=N\c3c(C)cc(C)cc3C)n(C)c(=O)n1CC2 [Trequinsin hydrochloride] | 104
51 | CC1(C)O[C@@H]2[C@@H](CO[C@@]3(COS(N)(=O)=O)OC(C)(C)O[C@@H]23)O1 [Topiramate] | 99.83 ± 0.64
52 | CC[C@H](C)[C@H](N)C(=O)N1CCSC1 [P32/98 hemifumarate salt] | 107

Row | Structure (SMILES) | mean cytoplasmic OPP incorporation
53 | CC[N+](CC)(CC(=O)Nc1c(C)cccc1C)Cc1ccccc1 [Denatonium benzoate] | 113
54 | COc1cc(NS(=O)(=O)c2ccc(N)cc2)nc(OC)n1 [Sulfadimethoxine] | 106
55 | CCNc1nc(Nc2cc(F)c(C(=O)N3CCOCC3)cc2OC)ncc1C(F)(F)F | 115
56 | CN(C)c1cc(NC(=O)CNC(C)(C)C)c(O)c2c1C[C@H]1C[C@H]3[C@H](N(C)C)C(O)=C(C(N)=O)C(=O)[C@@]3(O)C(O)=C1C2=O [Tigecycline] | 101
57 | O=C1Nc2ccc(I)cc2/C1=C/c1cc(Br)c(O)c(Br)c1 | 102 and 114
58 | O=C1N=C(O)NC1(c1ccccc1)c1ccccc1 [Phenytoin sodium (Dilantin)] | 105
59 | CN(C)c1ccc(-c2nc3ncc(Cl)c(N4CCN(CC(=O)Nc5nccs5)CC4)c3[nH]2)cc1 | 100
60 | Clc1cccc(Nc2nnc(-c3ccccc3)c3ccccc23)c1 | 103
61 | CC(C)Cn1cnc2c(N)nc3ccccc3c21 [Imiquimod] | 107 ± 8.2
62 | Cc1nc2ccc(NC(=O)Nc3ccnc4cccnc34)cc2o1 | 103
63 | Oc1nc(-c2ccc(C(F)(F)F)cc2)nc2c1CSCC2 | 103 and 101
64 | NC(=O)N1c2ccccc2CC(=O)c2ccccc21 [Oxcarbazepine] | 99.6
65 | Cc1cc(C#N)cc(C)c1Oc1nc(Nc2ccc(C#N)cc2)nc(N)c1Br [Etravirine (TMC125)] | 89.4
66 | Cn1cncc1[C@@](N)(c1ccc(Cl)cc1)c1ccc2c(c1)c(-c1cccc(Cl)c1)cc(=O)n2C [Tipifarnib (Zarnestra)] | 98.1
67 | Cc1nnc(SCC2=C(C(=O)O)N3C(=O)[C@@H](NC(=O)Cn4cnnn4)[C@H]3SC2)s1 [Cefazolin sodium salt] | 105
68 | O=c1[nH]c(=O)n([C@H]2C[C@H](O)[C@@H](CO)O2)cc1C(F)(F)F [Trifluridine] | 111
69 | Cc1cc(F)c(Nc2ncnc3cc(OCc4ccccc4)ccc23)cc1O | 104 and 96.3
70 | COc1ccc2c3c1O[C@H]1C[C@@H](O)C=C[C@@]31CCN(C)C2 [Galanthamine hydrobromide] | 102 ± 7.8
71 | CC(C)n1cnc2c(NCCc3ccc(O)cc3)nc(-c3csc4ccccc34)nc21 [StemRegenin 1] | 106
72 | CC(C)NC(=N)NC(=N)Nc1ccc(Cl)cc1 [Proguanil hydrochloride] | 97.3
73 | Cc1nc2c(O)cccc2c(=O)[nH]1 | 100
74 | CCNC(=O)c1cc2c(-c3cc(OCCN4CCCC4)c(Cl)cc3Cl)nc(N)nc2s1 | 95.3
75 | c1cc(CN2CCCNCCNCCCNCC2)ccc1CN1CCCNCCNCCCNCC1 [Plerixafor 8HCl (AMD3100 8HCl)] | 102
76 | CCCCc1nc2ccn(Cc3cccs3)c(=O)c2n1Cc1ccc(-c2ccccc2-c2nn[nH]n2)cc1 | 104
77 | CN(Cc1ccc(C(C)(C)C)cc1)Cc1cccc2ccccc12 [Butenafine Hydrochloride] | 114
